The whole screen tested about 48,000 compounds, of which about 120 (0.25%) were called active. About 4% were inconclusive and are not listed. Calls come from the whole dose curve; as a rule, active = well fitted activation curve with a large enough effect; inconclusive = small, poorly fitted or top-dose-only effect, or another doubt; inactive = no such curve, though single readings can be large or run the other way. This is one part of the list.
Experiment: Primary qHTS for Identification of Small Molecule Activators of Huntingtin-Antisense Promoter Activity; note: nearly all actives have a fitted effect of over 55% in size
Settings: HEK293 HTT-AS promoter firefly luciferase reporter, 24 h; series mostly up to 57.5 µM; activity change, positive = activation: at the top concentration
How it was run: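 Quantitative HTS used concentration series of up to 57.5 uM final on HEK293 luciferase reporter cells, 24 h at 37 degrees C. Readout was Dual-Glo firefly luminescence.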

Activity change, positive = activation, inactive:
CCCCS(=O)(=O)CC(O)CSc1nc(-c2ccc(C)cc2)cc(-c2ccccc2)c1C#N (stereo not given) -25%
Cc1ccccc1-c1noc(-c2cccnc2N2CCN(c3ccccc3)CC2)n1 -8.03%
O=C(Nc1ccc(F)cc1F)c1cc(-c2ccc(Cl)cc2)on1 -0.407%
CCOC(=O)c1ccc(NC(=O)CCn2c(=O)c3cccn3c3cccnc32)cc1 -5.65%
CCc1cccc(NS(=O)(=O)c2ccc(-n3cccn3)cc2)c1 -40.4%
CCN(CC)C(=O)Cn1c(=O)n(-c2ccc(C)c(C)c2)c(=O)c2c3c(sc21)CCCCC3 -12.8%
O=C(NCCCN1CCN(c2ccc(F)cc2)CC1)c1cnn(-c2ccc(F)cc2)c1-n1cccc1 -43%
CCc1ccc(NC(=O)CSc2ccc(-c3ccccn3)nn2)cc1 -29.7%
Cc1cccc(-c2nc3c4ccccc4n(Cc4cccc(Cl)c4)c(=O)n3n2)c1 -11.9%
O=C(CN1C(=O)COc2ccc(S(=O)(=O)N3CCOCC3)cc21)N1CCN(c2cccc(Cl)c2)CC1 -14.6%
CC(=O)c1cccc(Nc2nc(-c3cccc(C)c3)nc3ccccc23)c1 4.29% [at 11.5 µM, percent change from vehicle, -100% = no light]
CC(C)[C@H](CO)Nc1nc(Nc2cccc(Cl)c2)c2ncn(C(C)C)c2n1 -1.28%
Cc1ccccc1C(=O)Nc1ccc(OCc2cc(=O)n3ccccc3n2)cc1 9.76%
Cc1ccc(NC(=O)Cn2cc(S(=O)(=O)N3CCCC3)c(S(=O)(=O)N3CCCC3)c2)cc1F 14.7% [at 11.5 µM, percent change from vehicle, -100% = no light]
Cc1ccc(C)c(S(=O)(=O)c2nnn3c2nc(Nc2ccc(C)c(C)c2)c2ccccc23)c1 4.89%
COc1cccc(NC(=O)CCN2CCN(c3ccccc3)CC2)c1 -8.83%
COc1cccc(C(=O)NCC(c2ccc(N(C)C)cc2)N2CCc3ccccc32)c1 (stereo not given) -14.4%
CC(=O)c1ccc(Nc2nc3c(S(=O)(=O)c4ccccc4)nnn3c3ccc(Cl)cc23)cc1 0%
CCSc1oc(-c2ccco2)nc1S(=O)(=O)c1ccc(Br)cc1 -9.11%
Cc1ccc(NC(=O)Cn2c(=O)c3ccccc3n3nncc23)cc1 -14.2%
Cc1[nH]c(=O)c(C#N)cc1-c1ccncc1
CCN1c2ccccc2-c2nc(SCC(=O)NCc3ccccc3)ncc2S1(=O)=O -26%
COC(=O)CCNC(=O)NC(CCC(C)C)c1c(-n2cccc2)sc2c1CCN(C)C2 (stereo not given) 1.88%
COc1ccccc1NC(=O)Cn1c(=O)n(CCC(=O)NCC2CCCO2)c(=O)c2cc(OC)c(OC)cc21 (stereo not given) -0.499%
COc1ccccc1-c1cc2nc(C)c(CCC(=O)O)c(C)n2n1 -82.5%
CCC(=O)N1CCc2cc(S(=O)(=O)NCCC(=O)Nc3cc(C)ccc3OC)ccc21 -5.65%
Cc1ccc2nc(-c3ccc(O)cc3)c(Nc3ccc(Cl)cc3)n2c1 -26.4%
Cc1ccc(-c2nn(-c3ccc(F)cc3)c3c2cnc2cc(F)c(F)cc23)cc1 -16.2%
CCCN(CCC)C(=O)Cn1c(=O)n(-c2ccc(Cl)cc2)c(=O)c2c3c(sc21)CCCCC3 -8.74%
COc1cc(NC(=O)c2cc3c(s2)-c2ccccc2OC3)cc(OC)c1OC -24.7%
CCCc1cc(=O)[nH]c(SCC(=O)N2CCN(c3ccccc3OC)CC2)n1 -16.3%
COc1cccc(-n2c(=O)c3c(C)c(C)sc3n(CC(=O)Nc3ccccc3OC)c2=O)c1 10.2%
Cc1ccccc1CC1C(=O)Nc2ccc(Br)cc21 (stereo not given) -24.1%
Cn1c(=O)n(C)c2cc(N3CCOCC3)c(NS(=O)(=O)c3ccc(C(C)(C)C)cc3)cc21 -15.5%
CCOc1cccc(C(=O)N(Cc2ccc(N(C)C)cc2)CC2CCCO2)c1 (stereo not given) -17%
CCOc1ccc(N(C(=O)c2ccccc2F)S(=O)(=O)c2ccc3c(c2)n(C)c(=O)n3C)cc1 -12.3%
Cc1ccc(C(=O)CCC(=O)Nc2ccc(C)cc2C)cc1 -4.32%
CCc1ccccc1NC(=O)N1CCC(CN2CCc3ccccc3C2)CC1 -7.3%
CC1CCN(S(=O)(=O)c2ccc3c(ccc(=O)n3CC(=O)Nc3ccc(C(C)C)cc3)c2)CC1 -24.9%
Nc1nc(SCC(=O)Nc2cccc(C(F)(F)F)c2)n[nH]1 -7.39%
CCOC(=O)c1c(-c2ccc(C)cc2)csc1NC(=O)c1cc(-c2ccc(Cl)cc2)on1 -12.3%
C[Se]CCC(N)C(=O)O (stereo not given) -17.4% [at 116 µM, percent change from vehicle, -100% = no light]
Cn1cc(CCC(=O)NCc2ccc(Cl)cc2)c2ccccc21 -17.3%
Cc1cc(C)cc(NS(=O)(=O)c2ccc(-n3cccn3)cc2)c1 -34.6%
COCCCNC(=O)c1oc2c(c1C)-c1nn(Cc3ccc(Cl)cc3)cc1CC2 -41.2%
COc1ccc(-c2cccc(NS(=O)(=O)c3ccc(C)s3)c2)nn1 -22.5%
CCOc1cc(CNc2ccc(C(=O)O)cc2)ccc1OCc1ccccc1 -27.3%
CC1CCC(Nc2ncnc3onc(-c4ccc(F)cc4)c23)CC1 (stereo not given) -26.1%
O=C(O)c1c(-c2ccccc2)oc2ccc(OCc3ccc(Cl)c(Cl)c3)cc12 -6.88%
CCOc1ccccc1NC(=O)c1c(NCc2ccc(C)o2)sc2c1CCC(C)C2 (stereo not given) 9.03%
COc1ccc(S(=O)(=O)Nc2ccc3oc4c(c3c2)C(=O)CC(C)(C)C4)cc1 -34.5%
COc1cccc(C(=O)Nc2cccc(NC(=O)c3ccc(Cl)cc3Cl)c2)c1 0.78%
CCCCN(C)C(=O)Cn1c(C2CC(=O)N(c3ccc(C)cc3)C2)nc2ccccc21 (stereo not given) -5.92%
CCC(C)Nc1sc(S(=O)(=O)CC)nc1S(=O)(=O)c1ccc(C)cc1 (stereo not given) -16.2%
CCOc1ccc(CNC(=O)CCCn2nc(C)c3sc4ccccc4c3c2=O)cc1 -8.04%
COC(=O)c1cc(S(=O)(=O)NCC2CCN(Cc3ccc(C)cc3)CC2)cn1C 0.146%
Cc1cccc(NS(=O)(=O)c2ccc3c(c2)[C@H]2C=CC[C@H]2[C@@H](c2ccc(F)cc2)N3)c1 -20.5%
CCc1ccc(C(=O)c2cn(CC(=O)Nc3cc(OC)ccc3OC)c3ccc(C)cc3c2=O)cc1 -16.4%
CCCOc1ccc(-c2nn(-c3ccccc3)cc2C2NC(=O)NC(C)=C2C(=O)OC)cc1 (stereo not given) -16.7%
Cc1ccc(C)c(NC(=O)Cn2c(=O)nc(-c3ccccc3)c3ccccc32)c1 2.71%
